Experimental data reported in PMC4336329 (PLoS ONE, 2015).
About 2,200 (0.71%) of roughly 310,000 compounds showed an effect of 50% or more. Effects have a minus sign here. The list shows a part of the results.

target: human ether-à-go-go-related gene (hERG) potassium channel (human, UniProt Q12809); assay: primary screen, population patch clamp on CHO cells stably expressing hERG
Sequence (Q12809 whole entry, looked up): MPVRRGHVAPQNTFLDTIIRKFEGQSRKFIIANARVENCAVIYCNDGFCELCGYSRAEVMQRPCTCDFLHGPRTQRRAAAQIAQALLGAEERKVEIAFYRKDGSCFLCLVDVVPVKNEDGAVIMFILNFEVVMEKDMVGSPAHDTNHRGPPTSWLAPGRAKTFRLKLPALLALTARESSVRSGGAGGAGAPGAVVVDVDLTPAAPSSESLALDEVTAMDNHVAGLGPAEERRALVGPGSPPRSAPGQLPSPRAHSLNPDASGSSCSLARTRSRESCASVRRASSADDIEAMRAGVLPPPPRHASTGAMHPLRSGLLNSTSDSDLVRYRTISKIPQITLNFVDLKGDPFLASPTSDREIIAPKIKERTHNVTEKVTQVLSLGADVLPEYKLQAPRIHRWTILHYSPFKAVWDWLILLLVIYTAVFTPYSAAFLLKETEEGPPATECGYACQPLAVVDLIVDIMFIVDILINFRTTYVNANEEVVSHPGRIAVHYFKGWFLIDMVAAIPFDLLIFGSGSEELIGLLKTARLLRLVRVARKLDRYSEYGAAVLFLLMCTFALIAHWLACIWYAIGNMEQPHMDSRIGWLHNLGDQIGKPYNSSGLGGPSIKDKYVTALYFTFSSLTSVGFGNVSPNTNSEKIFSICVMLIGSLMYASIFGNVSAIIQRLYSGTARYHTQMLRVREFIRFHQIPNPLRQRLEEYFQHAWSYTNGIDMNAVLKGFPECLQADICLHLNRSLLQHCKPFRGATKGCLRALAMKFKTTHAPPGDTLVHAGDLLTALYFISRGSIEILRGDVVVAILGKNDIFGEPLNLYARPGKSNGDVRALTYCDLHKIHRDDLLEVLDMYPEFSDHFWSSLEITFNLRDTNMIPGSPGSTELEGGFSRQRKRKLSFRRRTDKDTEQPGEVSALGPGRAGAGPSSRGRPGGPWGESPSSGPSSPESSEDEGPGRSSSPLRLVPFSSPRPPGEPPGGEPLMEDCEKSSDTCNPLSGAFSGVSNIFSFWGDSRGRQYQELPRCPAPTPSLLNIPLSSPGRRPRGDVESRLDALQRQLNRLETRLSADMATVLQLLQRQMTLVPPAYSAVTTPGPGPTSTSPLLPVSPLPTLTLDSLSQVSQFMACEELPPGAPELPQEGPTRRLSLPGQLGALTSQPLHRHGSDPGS

Structure (SMILES) | hERG current change (%, negative = inhibition) at 1uM [%]
O=C(NNC(=O)C12CC3CC(CC(C3)C1)C2)c1ccco1 | 17.1
COc1ccc(OC)c(C(c2nnnn2Cc2ccccc2)N2CCN(C3CCCCC3)CC2)c1.Cl (stereo not shown) | -33.1
O=C(O)c1cccc(Sc2cc(Cl)ccc2C(=O)O)c1 | 10.5
COc1ccccc1-c1noc(-c2ccccc2C(=O)Nc2cccnc2)n1 | 5.23
Fc1ccc2nc(C(F)(F)F)cc(N3CCOCC3)c2c1 | 13
CC(=O)Nc1ccc(NC(=O)CCCn2cnc3ccccc3c2=O)cc1 | 8.6
Cc1cc(C)c(N2C(=O)C3C4CC(=O)C(c5ccccc54)C3C2=O)c(C)c1 (stereo not shown) | 3.35
Cc1cnc(C)c(N2CCN(Cc3cn(C)nc3-c3cccc(Cl)c3)CC2)n1 | -13.9
CCCNC(=O)NS(=O)(=O)c1ccc(Cl)cc1 | 14.8
CC(/C=N/NC(=O)Cn1cnc2c1c(=O)n(C)c(=O)n2C)=C\c1ccco1 | -1.08
O=[N+]([O-])c1ccc(Cl)c2cccnc12 | 7.69
COc1ccc2nc3oc(C(=O)Nc4ccc(OC)c(OC)c4)cc3cc2c1 | 16
FC(F)(F)c1ccc(Oc2ccc(Cl)cc2Br)nc1 | 19.6
CC(=O)c1c(C)[nH]c(C(=O)OCC(=O)Nc2ncc(Cl)c(C)c2Cl)c1C | -3.13
CCc1ccc(N(CC(=O)NC(C)(C)C)C(=O)CCC(=O)Nc2ccccn2)cc1 | 16.1
CCc1ccc2[nH]c(=O)c(C(c3nnnn3CC3CCCO3)N3CCN4CCCC4C3)cc2c1 (stereo not shown) | 3.1
COC(=O)c1sccc1NC(=O)/C=C/c1ccc(Cl)cc1 | -1.17
O=S(=O)(c1cccc(F)c1)N1CCN(Cc2ccc3c(c2)OCO3)CC1 | -9.49
Cc1csc(=O)n1CCC(=O)OCc1nnc(-c2ccccc2)o1 | 3.1
CCCCNC(=O)c1onc(CSc2ccc(F)cc2)c1C(=O)NCCCC | 10.9
COc1ccc(C(=O)/C=C/c2ccccc2OC)c(OC(=O)c2ccc([N+](=O)[O-])cc2)c1 | 9.93
COc1ccc(CC(=O)N2CCCc3ccccc32)cc1 | 8.01
CC(Sc1ccc2nnc(-c3ccc(F)cc3)n2n1)C(=O)O (stereo not shown) | 4.39
COc1ccc(CNC(=O)C(C)NCc2ccccc2Cl)cc1.Cl (stereo not shown) | 10.5
c1coc(-c2nnc(SCc3cn4ccccc4n3)o2)c1 | -2.53
